Assay results as given in the supplement of paper PMC10126150.
Values marked as one replicate rest on one cluster of the flow cell; about a third of the high ones do not repeat.

Test system: ATP
Test: switch fluorescence ratio, 500 uM ATP over buffer (Cy3 cluster intensity, sum of 5 cycles each) (fold (ratio)); higher = stronger signal-on switching upon ATP binding; sequences stand for … in TCGTCGGCAGCGTCAGATGTGTATAAGAGACAGTTTTTTTTTTTTTTTTTTTTTTTTT…TC
Settings: aptamer strand: ATP DNA aptamer (quencher-CACCTGGGGGAGTATTGCGGAGGAAGG + anchor), 100 nM annealed; ATP concentration: 500 uM; one replicate
Outline: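 Clusters with intensities outside 100-1000 RFU were excluded. The remaining Cy3-labelled switching-strand clusters on a modified Illumina MiSeq flow-cell had been annealed to 100 nM quencher-labelled ATP aptamer and imaged in selection buffer, then after 15 min with 500 uM ATP at 22 °C, for five cycles separated by NaOH stripping and re-annealing. The fluorescence ratio, averaged per switch-domain sequence, is each cluster's summed target-cycle Cy3 intensity over its summed buffer-cycle Cy3 intensity.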
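Also: ATP exposure 15 min at 22 °C before imaging.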

| Sequence | switch fluorescence ratio |
| --- | --- |
| GTAAAACGTA | 1.08 |
| GTAAAAGGTG | 1.22 |
| GTAAAAGTGT | 0.966 |
| GTAAACAGGA | 1.11 |
| GTAAACATCT | 1.03 |
| GTAAACCAGT | 0.983 |
| GTAAATCACT | 1.02 |
| GTAAATTCA | 0.996 |
| GTAACAAAGG | 1.05 |
| GTAACAAGTG | 1.04 |
| GTAACCAGCT | 0.999 |
| GTAACCAGTT | 1.03 |
| GTAACGGCAA | 1.31 |
| GTAACTGTGC | 0.935 |
| GTAAGAGGGT | 0.993 |
| GTAAGTATGG | 1.01 |
| GTAAGTGATA | 1.03 |
| GTAATATTGA | 1.01 |
| GTAATCGGGA | 1.03 |
| GTAATGGCAA | 1.07 |
| GTAATTCCGT | 1 |
| GTAATTGCAT | 1.02 |
| GTAATTGCCA | 0.973 |
| GTACAAAGAC | 0.98 |
| GTACATTAGG | 1.08 |

| Sequence | switch fluorescence ratio |
| --- | --- |
| GTACATTCGG | 0.998 |
| GTACCAGGAA | 1.05 |
| GTACCCAATG | 1 |
| GTACCCGGCG | 1.02 |
| GTACCCGTCG | 1.04 |
| GTACCGGCG | 0.978 |
| GTACGAAGGG | 1.11 |
| GTACTCGGTG | 1.02 |
| GTACTGGGGA | 0.957 |
| GTACTTGTTA | 0.997 |
| GTAGACAACA | 1.04 |
| GTAGACACAA | 1.03 |
| GTAGAGAAGG | 1.01 |
| GTAGAGAATG | 0.955 |
| GTAGAGCTGA | 0.981 |
| GTAGAGTGCA | 1.02 |
| GTAGATAGTC | 0.995 |
| GTAGATTAGC | 0.961 |
| GTAGCACGTG | 1.02 |
| GTAGCAGCTG | 1 |
| GTAGGAAACT | 0.994 |
| GTAGGACCTG | 0.94 |
| GTAGGGGGAT | 1.04 |
| GTAGGTTGGG | 0.991 |
| GTAGTATGCC | 0.997 |

| Sequence | switch fluorescence ratio |
| --- | --- |
| GTAGTCAGTC | 1.04 |
| GTAGTCCAAT | 1.01 |
| GTAGTTCGAG | 0.996 |
| GTAGTTGAAC | 0.996 |
| GTAGTTGGCC | 0.988 |
| GTAGTTTTAT | 0.965 |
| GTAGTTTTCC | 0.998 |
| GTATACCACT | 1.06 |
| GTATAGCAAA | 0.991 |
| GTATATCAGT | 1.04 |
| GTATCACATT | 0.977 |
| GTATCAGGTG | 2.67 |
| GTATCTAGAC | 1 |
| GTATCTGGTG | 1.05 |
| GTATCTTAAA | 1.01 |
| GTATCTTCTG | 1 |
| GTATGCCCTG | 1.02 |
| GTATGGAAGG | 0.994 |
| GTATGGATGC | 0.974 |
| GTATGTAGGC | 0.983 |
| GTATTAAAAC | 1.02 |
| GTATTAAGGT | 1.01 |
| GTATTAGAGG | 1.03 |
| GTATTATGAT | 0.991 |
| GTATTGAGGG | 0.989 |

| Sequence | switch fluorescence ratio |
| --- | --- |
| GTATTTGATT | 0.93 |
| GTATTTGTTA | 0.972 |
| GTCAAAAAA | 0.964 |
| GTCAAAACAG | 1.15 |
| GTCAAAATAT | 0.993 |
| GTCAAATCAT | 0.943 |
| GTCAACATTT | 0.964 |
| GTCAATTTA | 1 |
| GTCACAGGTG | 5.59 |
| GTCACAGTGT | 1.01 |
| GTCACGCGG | 1 |
| GTCAGAAATT | 0.964 |
| GTCATAAGG | 1.01 |
| GTCATAATGC | 0.971 |
| GTCATACCCA | 1 |
| GTCATAGCCT | 1.06 |
| GTCATATGTA | 0.973 |
| GTCATGGAGT | 0.954 |
| GTCATTAGTG | 1.01 |
| GTCATTATTT | 1.01 |
| GTCATTTCGC | 1 |
| GTCCAACGAT | 0.997 |
| GTCCAAGACC | 1.09 |
| GTCCAAGATT | 0.963 |
| GTCCGAATGG | 1.07 |

| Sequence | switch fluorescence ratio |
| --- | --- |
| GTCCGAGGTC | 1.06 |
| GTCCGGCGGC | 1.01 |
| GTCCTCGGGT | 1.01 |
| GTCCTGCGTT | 1.05 |
| GTCGAAGCTG | 1.01 |
| GTCGACCTCA | 1.01 |
| GTCGATAGAA | 0.995 |
| GTCGATCCGT | 0.986 |
| GTCGATGGTC | 0.998 |
| GTCGATTTGG | 1 |
| GTCGCATTCA | 0.968 |
| GTCGCCGCCT | 1 |
| GTCGCCGTTT | 0.973 |
| GTCGCGAGAG | 1.12 |
| GTCGCTGGGG | 0.965 |
| GTCGGCCAAC | 1.03 |
| GTCGGCCCGA | 0.994 |
| GTCGGCCGTC | 1.02 |
| GTCGGCTGGA | 1.04 |
| GTCGGGCAGG | 1.01 |
| GTCGGGTCTG | 1.07 |
| GTCGGTAAGA | 0.995 |
| GTCGGTTCCC | 0.977 |
| GTCGTAAGAT | 1.01 |
| GTCGTCGTTG | 0.98 |

| Sequence | switch fluorescence ratio |
| --- | --- |
| GTCGTGATTT | 1.11 |
| GTCGTGGTGG | 0.975 |
| GTCGTTACCA | 1.01 |
| GTCTAACCTG | 1.02 |
| GTCTAGGGAA | 0.942 |
| GTCTCAAACC | 1.09 |
| GTCTCAGGCA | 1.08 |
| GTCTCCGAAG | 1.69 |
| GTCTCCGTCA | 1.04 |
| GTCTCGAGTT | 1 |
| GTCTCGCATA | 1.26 |
| GTCTCTAGGA | 0.963 |
| GTCTGAGAAC | 0.97 |
| GTCTGGTGAT | 0.975 |
| GTCTTACAAA | 1 |
| GTCTTACGTT | 0.997 |
| GTCTTCTAAG | 0.963 |
| GTCTTTACGG | 1.02 |
| GTCTTTGATC | 0.981 |
| GTCTTTTGAC | 0.977 |
| GTGAAACTAT | 0.975 |
| GTGAAAGTGA | 0.934 |
| GTGAAGGAAA | 0.992 |
| GTGAAGGCAG | 1 |
| GTGAATGCGC | 1.02 |

| Sequence | switch fluorescence ratio |
| --- | --- |
| GTGACCACCG | 1.03 |
| GTGACCCAAC | 1.05 |
| GTGACCGGGT | 1.09 |
| GTGACGACAG | 0.991 |
| GTGACGATAA | 1.18 |
| GTGACGGATT | 1.02 |
| GTGACGGCGC | 1.03 |
| GTGACGTGCT | 0.922 |
| GTGACTCCGT | 1.33 |
| GTGACTTGAG | 0.952 |
| GTGAGAAGGA | 1.02 |
| GTGAGATGGT | 0.962 |
| GTGAGCGCG | 0.942 |
| GTGAGGGAGA | 1.02 |
| GTGAGTCGAG | 0.978 |
| GTGAGTTGTT | 1.01 |
| GTGATATCAC | 1.01 |
| GTGATATGAA | 1.01 |
| GTGATATGCT | 0.969 |
| GTGATCAATT | 0.943 |
| GTGATCGGGG | 0.997 |
| GTGATCTTGT | 0.954 |
| GTGATGAGCC | 0.929 |
| GTGATGGAAG | 0.989 |
| GTGATGGCAT | 0.973 |

| Sequence | switch fluorescence ratio |
| --- | --- |
| GTGATGGTTG | 0.993 |
| GTGATGTTAT | 1.01 |
| GTGCAAGTAA | 1.06 |
| GTGCACGGGA | 0.99 |
| GTGCATAGTG | 0.983 |
| GTGCATTTAT | 1.01 |
| GTGCCCCGAT | 0.96 |
| GTGCCCGGGC | 1.03 |
| GTGCCGCGGA | 0.966 |
| GTGCCGTTCA | 1.01 |
| GTGCCTCTGT | 0.978 |
| GTGCCTGTTT | 1 |
| GTGCGAAACT | 1.11 |
| GTGCGATATT | 1.05 |
| GTGCGCGGGC | 1.03 |
| GTGCGGAAGT | 1.03 |
| GTGCGGCTAC | 1.2 |
| GTGCGGGAAG | 0.994 |
| GTGCTAGAAT | 0.983 |
| GTGCTCAAGC | 1.01 |
| GTGCTGCCTC | 1.04 |
| GTGCTGTATA | 0.966 |
| GTGCTTACCT | 1.14 |
| GTGCTTAGAC | 1.05 |
| GTGGA | 1.02 |
